Data: PubChem BioAssay AID504333 (National Center for Advancing Translational Sciences (NCATS), 2011)
In all, about 360,000 compounds went through this assay and about 16,000 (4.4%) were called active. The shares of active, inactive and inconclusive entries below differ from those in the screen. The call rests on the fitted dose curve; in most records, active means well fitted inhibition curve with a large enough effect; inconclusive means small, poorly fitted or top-dose-only effect; inactive means no such curve, though single readings can be large or run the other way. Potencies beside an inconclusive call are fits to weak or partial responses and may not hold up.

Biological target: Bromodomain adjacent to zinc finger domain protein 2B (Homo sapiens) (UniProt Q9UIF8)
Experiment: qHTS Assay for Inhibitors of BAZ2B; further: nearly all actives have a fitted effect of over 60% in size
Conditions: AlphaScreen BAZ2B-H3K14Ac peptide displacement; activity change, negative = inhibition: at 114 µM (top of the series)
Outline: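 Complex of BAZ2B and biotin-H3K14Ac (50 nM apiece) forms over 30 min at RT, then faces library compounds up to 110 uM for another 30 min; AlphaScreen beads added, 20 min dark incubation, luminescence read.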
On the % scale 0 is the no-effect control and ±100 the full control effect; potency means the concentration at half of the fitted maximal effect; tags describe the fitted curve by direction and shape.

Chain of UniProt Q9UIF8 (Q9UIF8 whole entry, looked up, the tested form may be a part): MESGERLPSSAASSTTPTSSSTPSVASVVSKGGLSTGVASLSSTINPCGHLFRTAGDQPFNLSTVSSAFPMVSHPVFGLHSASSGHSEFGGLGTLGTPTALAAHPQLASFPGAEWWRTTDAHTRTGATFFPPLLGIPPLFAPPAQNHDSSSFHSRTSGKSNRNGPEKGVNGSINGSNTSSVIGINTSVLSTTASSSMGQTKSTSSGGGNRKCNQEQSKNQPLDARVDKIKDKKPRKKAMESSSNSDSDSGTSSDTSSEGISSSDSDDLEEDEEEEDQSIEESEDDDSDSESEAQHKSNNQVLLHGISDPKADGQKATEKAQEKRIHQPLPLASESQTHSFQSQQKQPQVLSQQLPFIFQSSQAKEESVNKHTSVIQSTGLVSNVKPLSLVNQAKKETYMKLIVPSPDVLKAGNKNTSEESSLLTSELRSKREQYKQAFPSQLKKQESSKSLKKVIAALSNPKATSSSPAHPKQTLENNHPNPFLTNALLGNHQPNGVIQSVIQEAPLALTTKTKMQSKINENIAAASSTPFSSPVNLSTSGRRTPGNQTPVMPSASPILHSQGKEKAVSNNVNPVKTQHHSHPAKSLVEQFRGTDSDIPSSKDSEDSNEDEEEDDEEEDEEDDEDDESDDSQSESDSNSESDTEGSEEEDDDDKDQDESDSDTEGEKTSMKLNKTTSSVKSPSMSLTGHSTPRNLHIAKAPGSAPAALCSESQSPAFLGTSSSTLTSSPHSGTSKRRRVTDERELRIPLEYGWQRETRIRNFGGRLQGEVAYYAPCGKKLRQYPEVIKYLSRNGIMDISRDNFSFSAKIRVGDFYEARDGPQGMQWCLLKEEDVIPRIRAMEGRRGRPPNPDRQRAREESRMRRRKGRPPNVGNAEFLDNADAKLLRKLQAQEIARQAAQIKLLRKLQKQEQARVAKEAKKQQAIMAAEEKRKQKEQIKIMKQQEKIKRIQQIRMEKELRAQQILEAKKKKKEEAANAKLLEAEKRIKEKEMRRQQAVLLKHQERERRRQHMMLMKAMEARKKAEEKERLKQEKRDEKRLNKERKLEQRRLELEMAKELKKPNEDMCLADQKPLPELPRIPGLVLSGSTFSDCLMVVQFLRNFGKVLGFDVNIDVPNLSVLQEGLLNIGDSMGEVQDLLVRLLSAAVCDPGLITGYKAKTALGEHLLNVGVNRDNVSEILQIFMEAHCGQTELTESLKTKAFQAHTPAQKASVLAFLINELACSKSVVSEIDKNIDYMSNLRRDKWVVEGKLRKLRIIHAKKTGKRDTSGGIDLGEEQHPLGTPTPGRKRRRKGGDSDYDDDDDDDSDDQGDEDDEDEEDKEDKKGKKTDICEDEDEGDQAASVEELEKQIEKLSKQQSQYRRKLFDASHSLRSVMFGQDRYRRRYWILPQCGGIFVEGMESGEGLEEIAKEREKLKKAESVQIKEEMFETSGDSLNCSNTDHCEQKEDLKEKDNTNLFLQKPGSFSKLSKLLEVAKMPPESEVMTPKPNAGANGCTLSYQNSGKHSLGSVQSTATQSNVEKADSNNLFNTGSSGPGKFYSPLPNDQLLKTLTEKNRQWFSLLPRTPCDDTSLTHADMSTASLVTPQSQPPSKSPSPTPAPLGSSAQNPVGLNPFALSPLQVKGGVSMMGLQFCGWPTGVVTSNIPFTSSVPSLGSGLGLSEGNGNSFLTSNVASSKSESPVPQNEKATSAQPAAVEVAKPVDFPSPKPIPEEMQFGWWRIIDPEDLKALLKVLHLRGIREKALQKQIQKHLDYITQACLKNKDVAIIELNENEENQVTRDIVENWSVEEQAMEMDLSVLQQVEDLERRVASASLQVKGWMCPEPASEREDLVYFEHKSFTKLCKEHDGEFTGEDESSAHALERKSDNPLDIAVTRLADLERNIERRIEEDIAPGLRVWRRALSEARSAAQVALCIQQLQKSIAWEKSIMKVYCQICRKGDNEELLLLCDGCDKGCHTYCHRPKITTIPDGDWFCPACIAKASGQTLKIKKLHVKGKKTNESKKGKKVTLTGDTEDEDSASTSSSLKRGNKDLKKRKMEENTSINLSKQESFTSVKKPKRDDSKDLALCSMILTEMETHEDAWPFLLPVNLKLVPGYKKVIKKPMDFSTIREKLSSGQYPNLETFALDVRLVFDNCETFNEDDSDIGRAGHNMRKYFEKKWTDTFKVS

SMILES	Potency	activity change, negative = inhibition
Cc1cccc(Nc2nc(N)nc(CN3CCC(C(N)=O)CC3)n2)c1C	inconclusive: 89.1 µM [inhibitor, single point]	
CCCCC(=O)Nc1ccc(C(=O)Nc2ccc(S(=O)(=O)Nc3nccc(C)n3)cc2)cc1	inconclusive: 89.1 µM [inhibitor, single point]	
CN(C)CCCN1c2ccccc2CCc2ccc(Cl)cc21	inconclusive: 79.4 µM [inhibitor, partial curve]	
O=C(COC(=O)c1ccc(O)cc1)Nc1ccccc1[N+](=O)[O-]	inconclusive: 39.8 µM [inhibitor, partial curve]	
CO[C@@]1(NC(=O)C2SC(=C(C(N)=O)C(=O)O)S2)C(=O)N2C(C(=O)O)=C(CSc3nnnn3C)CS[C@@H]21 (stereo partly drawn)	active: 50.1 µM	
CCOC(=O)c1cc(C)n(CC2CCC(C(=O)Nc3ccc(C)c(F)c3)CC2)c1C (stereo not drawn)	inconclusive: 89.1 µM [inhibitor, single point]	
COc1ccc(-n2c(C)cc(C(=O)CSc3nnc(-c4ccoc4C)n3C)c2C)cc1	inconclusive: 56.2 µM [inhibitor, partial curve]	
CCCOC(=O)CSC1=C(C#N)C(c2ccccc2OCC)C(C#N)C(=O)N1 (stereo not drawn)	active: 50.1 µM	
CN(C)CCCN(C(=O)c1cc(Cl)sc1Cl)c1nc2cc3c(cc2s1)OCO3	inconclusive: 35.5 µM [inhibitor, partial curve]	
O=C(COc1ccc2ccccc2c1)NCCNC(=O)COc1ccc2ccccc2c1	inconclusive: 6.31 µM [inhibitor, single point]	
Cc1c(NC(=O)c2nc3ccccc3nc2N2CCCCC2)cccc1[N+](=O)[O-]	inconclusive: 17.8 µM [inhibitor, full curve]	
Cc1noc(C)c1COc1ccc(C(=O)OCC(=O)N2c3ccccc3NC(=O)C2(C)C)cc1	inconclusive: 89.1 µM [inhibitor, single point]	
Cc1ccc(CN2CCN(CC(=O)Nc3ccc(C)c(C)c3)S2(=O)=O)cc1		inactive: -9.73%
N#Cc1cccc(NC(=O)C2CCN(S(=O)(=O)c3ccc4[nH]c(=O)ccc4c3)CC2)c1		inactive: 0.412%
CC(=O)c1cccc(S(=O)(=O)Nc2ccc(N3CCOCC3)cc2)c1		inactive: -24.2%
O=C(O)CSCc1nc2scc(-c3ccccc3)c2c(=O)[nH]1		inactive: -24.2%
O=C(Nc1ccc(N2CCOCC2)cc1N1CCOCC1)c1ncoc1-c1cccc(F)c1	inconclusive: 35.5 µM [inhibitor, partial curve]	
COc1cc(OC)cc(C(=O)Nc2nc(CC(=O)NC(C)c3ccccc3)cs2)c1 (stereo not drawn)	active: 50.1 µM	
